# In PubChem BioAssay AID504332 (National Center for Advancing Translational Sciences (NCATS), 2011):
# In all, about 350,000 compounds went through this assay and about 31,000 (8.9%) were called active. Inconclusive means that the source gave no clear call. Such entries were picked first, then a sample of the others. Calls come from the whole dose curve; as a rule, active = well fitted inhibition curve with a large enough effect; inconclusive = small, poorly fitted or top-dose-only effect; inactive = no such curve, though single readings can be large or run the other way. Potencies beside an inconclusive call are fits to weak or partial responses and may not hold up.
# Molecular target: Histone-lysine N-methyltransferase EHMT2 (Homo sapiens) (UniProt Q96KQ7)
# Assay: qHTS Assay for Inhibitors of Histone Lysine Methyltransferase G9a; note: nearly all actives have a fitted effect of over 75% in size
# Conditions: G9a H3K9 monomethylation, AlphaScreen, 2 h; activity, negative = inhibition: at 59 µM (top of the series) unless noted
# Summary of the method: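 Readings reflect AlphaScreen signal from monomethyl-H3K9 antibody detection. HMT at 20 nM; substrate b-H3K9 500 nM; cofactor SAM 20 uM; 2 h RT reaction; compounds tested as titrations in qHTS with 15 min preincubation.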
# % is set by controls: 0 for no effect and ±100 for the full control effect; potency is the fitted concentration of half-maximal effect; tags give direction and shape of the fitted curve.
# Sequence of UniProt Q96KQ7 (Q96KQ7 whole entry, looked up): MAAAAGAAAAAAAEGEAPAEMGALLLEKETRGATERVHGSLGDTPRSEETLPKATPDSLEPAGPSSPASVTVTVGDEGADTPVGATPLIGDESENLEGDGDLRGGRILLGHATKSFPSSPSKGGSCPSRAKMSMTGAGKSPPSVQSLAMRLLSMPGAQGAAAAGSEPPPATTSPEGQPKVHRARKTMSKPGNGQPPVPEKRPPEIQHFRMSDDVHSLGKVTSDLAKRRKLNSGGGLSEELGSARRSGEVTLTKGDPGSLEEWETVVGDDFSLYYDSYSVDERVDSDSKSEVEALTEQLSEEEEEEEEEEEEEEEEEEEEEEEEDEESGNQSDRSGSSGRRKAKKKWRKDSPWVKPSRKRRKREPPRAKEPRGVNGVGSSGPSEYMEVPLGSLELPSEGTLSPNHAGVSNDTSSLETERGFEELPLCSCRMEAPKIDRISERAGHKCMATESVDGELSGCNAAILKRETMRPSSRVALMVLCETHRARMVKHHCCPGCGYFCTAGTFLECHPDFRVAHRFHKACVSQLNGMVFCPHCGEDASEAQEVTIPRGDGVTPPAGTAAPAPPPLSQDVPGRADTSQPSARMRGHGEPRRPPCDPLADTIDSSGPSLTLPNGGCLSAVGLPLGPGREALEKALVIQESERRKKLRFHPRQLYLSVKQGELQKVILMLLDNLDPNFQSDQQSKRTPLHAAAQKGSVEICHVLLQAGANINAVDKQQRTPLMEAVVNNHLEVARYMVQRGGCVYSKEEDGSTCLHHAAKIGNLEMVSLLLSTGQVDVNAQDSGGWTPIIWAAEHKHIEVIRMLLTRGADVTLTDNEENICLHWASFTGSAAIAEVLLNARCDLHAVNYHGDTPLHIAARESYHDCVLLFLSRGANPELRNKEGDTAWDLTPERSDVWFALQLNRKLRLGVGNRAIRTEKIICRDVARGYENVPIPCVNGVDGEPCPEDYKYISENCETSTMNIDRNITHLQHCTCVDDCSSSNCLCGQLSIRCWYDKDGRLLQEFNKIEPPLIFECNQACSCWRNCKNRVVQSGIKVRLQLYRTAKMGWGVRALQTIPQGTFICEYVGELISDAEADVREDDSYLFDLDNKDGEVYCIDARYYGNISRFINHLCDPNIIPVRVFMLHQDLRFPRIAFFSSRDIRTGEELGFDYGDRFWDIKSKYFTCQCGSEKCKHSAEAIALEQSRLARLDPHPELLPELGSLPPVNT
SMILES,Potency,"activity, negative = inhibition"
CCOc1ccc(C2=Nn3c(nnc3-c3ccccn3)SC2)cc1,"inconclusive: 89.1 µM [inhibitor, single point]",
Cc1ccc(-c2nn(-c3ccccc3)cc2/C=N/n2c(-c3ccncc3)n[nH]c2=S)cc1,"inconclusive: 2.82 µM [inhibitor, partial curve, poor fit]",
CN(C)S(=O)(=O)c1ccc(/C(O)=C2/C(=O)C(=O)N(Cc3cccnc3)C2c2ccco2)cc1 (centres undefined),"inconclusive: 39.8 µM [inhibitor, single point]",
CSc1nc2ccc(NC(=O)c3ccccn3)cc2s1,"inconclusive: 89.1 µM [inhibitor, single point]",
CNc1ccc(-c2nc(-c3ccncc3)no2)cc1[N+](=O)[O-],"inconclusive: 31.6 µM [inhibitor, partial curve, poor fit]",
Cc1cccc(NC(=O)C2Cc3ccccc3O/C2=N\O)c1 (centres undefined),,inactive: -11.3% [at 102 µM]
Cc1ccc2[nH]c3c(N4CCN(Cc5ccc6c(c5)OCO6)CC4)ncnc3c2c1,active: 50.1 µM,
CCCCC1(C)OC(=O)C(=Cc2c[nH]c3ccccc23)C(=O)O1 (centres undefined),,inactive: -9.37% [at 102 µM]
NC(=O)CC[C@H](NC(=O)c1ccc(F)cc1)C(=O)OCC(=O)Nc1c(F)c(F)c(F)c(F)c1F,"inconclusive: 0.631 µM [inhibitor, partial curve, poor fit]",
CC(C)c1ccc(/C=C/C(=O)NCc2ccc(S(N)(=O)=O)cc2)cc1,,inconclusive: -56.6% [inhibitor]
COc1ccc(N2CCN(C(=O)Cc3ncc(C(F)(F)F)cc3Cl)CC2)cc1,,inconclusive: -64.5% [inhibitor]
COc1ccc2c(c1OC)C(=O)NC(C)=C(C(=O)OC(C)(C)C)C2O (centres undefined),"inconclusive: 39.8 µM [inhibitor, partial curve]",
Cc1ccc2c(c1)C1C=CCC1C(C(=O)O)N2 (centres undefined),active: 3.98 µM,
O=C(Cn1cc(C(F)(F)F)cc(Cl)c1=O)Nc1cccc(Cl)c1,,inactive: 3.88%
Cc1ccc(CSc2nc3c(c(=O)[nH]2)C(c2ccncc2)C2=C(CCCC2=O)N3)cc1 (centres undefined),,inconclusive: -79.4% [inhibitor]
COc1ccccc1C1C(C(=O)c2ccco2)=C(O)C(=O)N1c1cc(C)on1 (centres undefined),"inconclusive: 89.1 µM [inhibitor, single point]",
CCCNC(=O)c1cc(Cl)c(NC(=O)C2=CSCCO2)cc1OC,"inconclusive: 79.4 µM [inhibitor, single point]",
Cc1ccc(CNc2oc(-c3cccs3)nc2C#N)cc1,active: 50.1 µM,
Cn1c(-c2cccc(F)c2)nc2c1c(=O)[nH]c(=O)n2Cc1ccccc1,"inconclusive: 15.8 µM [inhibitor, partial curve, poor fit]",
